{"source": "the supplement of paper PMC3334620", "note": "In all, about 33,000 sequences were measured (“E-score (-0.5 to 0.5)”: median about -0.016, highest 2% from about 0.31 on). The list shows a part of the results."}
{"molecular_target": "Cst6 (UniProt P40535)", "assay": "PBM E-score (8-mer binding enrichment) (E-score (-0.5 to 0.5)); higher = stronger / more preferred TF binding; most listed sequences are background and not binding sites", "settings": "protein concentration: 200 nM; construct: GST-DNA-binding domain", "summary_of_the_method": "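PURExpress in vitro transcription/translation supplied GST-tagged yeast transcription factors, either full-length or DNA-binding domain. Applied at about 100-200 nM to universal all-10-mer Agilent arrays double-stranded by primer extension, the bound protein was detected with fluorescent anti-GST. E-scores, modified Wilcoxon-Mann-Whitney statistics, were given by the Universal PBM Analysis Suite to ungapped eight-base words pooled with their reverse complements after masliner normalisation.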"}
{"sequence": "CCTGTGCA", "PBM E-score": -0.255}
{"sequence": "AGACATTC", "PBM E-score": -0.00845}
{"sequence": "CCAAAGAA", "PBM E-score": 0.114}
{"sequence": "AGAGCGCC", "PBM E-score": 0.1}
{"sequence": "AGTACCGA", "PBM E-score": -0.0823}
{"sequence": "GCCACAAC", "PBM E-score": 0.0583}
{"sequence": "CCACAGGC", "PBM E-score": -0.258}
{"sequence": "AGCCATCG", "PBM E-score": -0.0967}
{"sequence": "GACTGATC", "PBM E-score": -0.0497}
{"sequence": "AAGCCCGC", "PBM E-score": -0.108}
{"sequence": "ACGAGCCA", "PBM E-score": -0.0129}
{"sequence": "GATTGACC", "PBM E-score": -0.104}
{"sequence": "ACTCGACC", "PBM E-score": -0.22}
{"sequence": "ATAGATAA", "PBM E-score": 0.16}
{"sequence": "CACTGTAG", "PBM E-score": 0.237}
{"sequence": "CAGCACTG", "PBM E-score": -0.0109}
{"sequence": "GGCAAGGA", "PBM E-score": -0.0742}
{"sequence": "CCGGTAAA", "PBM E-score": -0.0305}
{"sequence": "AAGAGAGC", "PBM E-score": -0.204}
{"sequence": "AGGGATCG", "PBM E-score": -0.186}
{"sequence": "CACCTCAG", "PBM E-score": -0.149}
{"sequence": "CAAGGCCA", "PBM E-score": -0.156}
{"sequence": "CGTGAGGC", "PBM E-score": 0.0522}
{"sequence": "GGCGGGAA", "PBM E-score": 0.00251}
{"sequence": "ACGACTAT", "PBM E-score": 0.107}
{"sequence": "CTCATCCC", "PBM E-score": -0.19}
{"sequence": "ACCGCCCT", "PBM E-score": -0.164}
{"sequence": "CAGATTGC", "PBM E-score": -0.0228}
{"sequence": "TGGATACA", "PBM E-score": -0.0309}
{"sequence": "AAAGTAAG", "PBM E-score": 0.0662}
{"sequence": "CATCGGGC", "PBM E-score": -0.171}
{"sequence": "ACGACTAA", "PBM E-score": -0.0125}
{"sequence": "GCCAGCAA", "PBM E-score": -0.15}
{"sequence": "CCCGTTGA", "PBM E-score": -0.0143}
{"sequence": "GGCGGACC", "PBM E-score": -0.373}
{"sequence": "CTAAACAC", "PBM E-score": 0.0664}
{"sequence": "CGCCGACG", "PBM E-score": -0.00344}
{"sequence": "ACACCCCC", "PBM E-score": -0.365}
{"sequence": "GTGGGAAC", "PBM E-score": -0.221}
{"sequence": "GGCGCCAC", "PBM E-score": -0.0013}
{"sequence": "CAGCTTCC", "PBM E-score": -0.149}
{"sequence": "CATCGATA", "PBM E-score": 0.138}
{"sequence": "ATCGTAAC", "PBM E-score": 0.163}
{"sequence": "ACGGTGGG", "PBM E-score": -0.0915}
{"sequence": "CGGTACCG", "PBM E-score": -0.0828}
{"sequence": "GGCTTTTA", "PBM E-score": -0.0345}
{"sequence": "GCTGGTCC", "PBM E-score": -0.241}
{"sequence": "AATATGTC", "PBM E-score": 0.319}
{"sequence": "CGCGAGGA", "PBM E-score": -0.153}
{"sequence": "ACTTGTAA", "PBM E-score": 0.146}
{"sequence": "AAATAAGC", "PBM E-score": 0.0943}
{"sequence": "CACGGTCG", "PBM E-score": -0.373}
{"sequence": "TCTAGGCA", "PBM E-score": -0.198}
{"sequence": "CTGTCTAA", "PBM E-score": 0.0558}
{"sequence": "TCCAAGCA", "PBM E-score": -0.209}
{"sequence": "GATTCCGC", "PBM E-score": 0.0949}
{"sequence": "CGAAAAGC", "PBM E-score": -0.1}
{"sequence": "CCATTCGC", "PBM E-score": -0.234}
{"sequence": "TGTCGTAA", "PBM E-score": 0.303}
{"sequence": "CCCGTGTC", "PBM E-score": -0.15}
{"sequence": "CAGAGGAA", "PBM E-score": -0.158}
{"sequence": "ATTTAGTC", "PBM E-score": 0.209}
{"sequence": "GCCAACTA", "PBM E-score": -0.00854}
{"sequence": "CCGTAAGG", "PBM E-score": -0.113}
{"sequence": "GTTAGATA", "PBM E-score": 0.0758}
{"sequence": "CACATGCC", "PBM E-score": 0.0128}
{"sequence": "ACTCGCAT", "PBM E-score": 0.151}
{"sequence": "CTTGGGGA", "PBM E-score": -0.148}
{"sequence": "AGTAAAGG", "PBM E-score": 0.0518}
{"sequence": "AGAGGTGG", "PBM E-score": -0.0943}
{"sequence": "CACGCGAG", "PBM E-score": -0.0452}
{"sequence": "GAGCAGAC", "PBM E-score": 0.00076}
{"sequence": "TGACAACA", "PBM E-score": 0.346}
{"sequence": "ACTAGGCC", "PBM E-score": -0.356}
{"sequence": "ATTAAACA", "PBM E-score": 0.125}
{"sequence": "AATATCTA", "PBM E-score": 0.0899}
{"sequence": "GGTGACGA", "PBM E-score": 0.463}
{"sequence": "CAGCTCCC", "PBM E-score": -0.251}
{"sequence": "GAACCTCC", "PBM E-score": -0.249}
{"sequence": "CACCTCAA", "PBM E-score": 0.0981}
{"sequence": "ATGACATC", "PBM E-score": 0.478}
{"sequence": "CCCTAGGG", "PBM E-score": -0.233}
{"sequence": "CTTGCCAA", "PBM E-score": -0.0495}
{"sequence": "TTCAGGAA", "PBM E-score": -0.00723}
{"sequence": "AAAGACCA", "PBM E-score": -0.231}
{"sequence": "GGAACCTA", "PBM E-score": -0.104}
{"sequence": "ACTGAATG", "PBM E-score": 0.0705}
{"sequence": "CGCCTACG", "PBM E-score": 0.0141}
{"sequence": "TGACCAAA", "PBM E-score": 0.168}
{"sequence": "ATTAGGCG", "PBM E-score": 0.204}
{"sequence": "AATAATCT", "PBM E-score": 0.152}
{"sequence": "ATGAACGA", "PBM E-score": 0.169}
{"sequence": "TGCGGCAA", "PBM E-score": 0.19}
{"sequence": "GTAACCAC", "PBM E-score": -0.0805}
{"sequence": "CATACTTC", "PBM E-score": 0.0315}
{"sequence": "CTTCCTTC", "PBM E-score": -0.24}
{"sequence": "AGAAAGAT", "PBM E-score": 0.207}
{"sequence": "CTATGCTC", "PBM E-score": -0.217}
{"sequence": "ATTAGGGA", "PBM E-score": -0.175}
{"sequence": "AAACGCTG", "PBM E-score": -0.0466}
{"sequence": "AAGGTGTC", "PBM E-score": -0.014}
{"sequence": "ACGGTAGT", "PBM E-score": -0.143}
{"sequence": "AATAGGGG", "PBM E-score": -0.0553}
{"sequence": "CGCAGGAG", "PBM E-score": -0.0924}
{"sequence": "GCCCACAC", "PBM E-score": -0.134}
{"sequence": "ATGTGCAG", "PBM E-score": -0.081}
{"sequence": "CCTAGGGC", "PBM E-score": -0.266}
{"sequence": "ATTATTAC", "PBM E-score": 0.339}
{"sequence": "CATGAATG", "PBM E-score": 0.177}
{"sequence": "ATATCATG", "PBM E-score": 0.19}
{"sequence": "CCTTCTAA", "PBM E-score": -0.00398}
{"sequence": "CGAATACA", "PBM E-score": 0.0401}
{"sequence": "ATGCAGAA", "PBM E-score": 0.148}
{"sequence": "GCAGTAAA", "PBM E-score": 0.0152}
{"sequence": "AGTTTTCC", "PBM E-score": 0.0828}
{"sequence": "AGCTTAAC", "PBM E-score": -0.0797}
{"sequence": "GCTGGCTA", "PBM E-score": -0.283}
{"sequence": "CCAGCGGG", "PBM E-score": -0.0814}
{"sequence": "AAAACACG", "PBM E-score": 0.0517}
{"sequence": "ATATGTAG", "PBM E-score": -0.0318}
{"sequence": "AGCTTCTC", "PBM E-score": -0.136}
{"sequence": "GGTGGCGA", "PBM E-score": -0.11}
{"sequence": "CACATACC", "PBM E-score": -0.0713}
{"sequence": "GAACTTAC", "PBM E-score": 0.125}
{"sequence": "GTCACGAA", "PBM E-score": 0.298}
{"sequence": "CGGACAAA", "PBM E-score": 0.1}
{"sequence": "AGTCGGTC", "PBM E-score": -0.28}
{"sequence": "AATGTTAC", "PBM E-score": 0.0999}
{"sequence": "CGGTCTTA", "PBM E-score": -0.2}
{"sequence": "AAAACGGC", "PBM E-score": 0.222}
{"sequence": "CGGAACAA", "PBM E-score": 0.0367}
{"sequence": "CGTGGGCC", "PBM E-score": -0.228}
{"sequence": "AGCAAAAT", "PBM E-score": 0.0787}
{"sequence": "CTGGACGA", "PBM E-score": -0.299}
{"sequence": "ATCTTGAA", "PBM E-score": 0.0326}
{"sequence": "AGGGTACA", "PBM E-score": -0.0757}
{"sequence": "ACAGGGTC", "PBM E-score": -0.231}
{"sequence": "CGTCTTAA", "PBM E-score": 0.0809}
{"sequence": "GTTTATGA", "PBM E-score": 0.18}
{"sequence": "CTCTGGCA", "PBM E-score": -0.221}
{"sequence": "CTTTTACC", "PBM E-score": 0.083}
{"sequence": "TTCTTCAA", "PBM E-score": 0.168}
{"sequence": "AATCAGCC", "PBM E-score": -0.113}
{"sequence": "TAAGATAA", "PBM E-score": 0.159}
{"sequence": "CTGTTGTC", "PBM E-score": 0.147}
{"sequence": "CAGTGAGA", "PBM E-score": 0.017}
{"sequence": "TCCAAACA", "PBM E-score": -0.0477}
{"sequence": "CGCTTTTC", "PBM E-score": -0.0543}
{"sequence": "GACAAGAC", "PBM E-score": -0.124}
{"sequence": "AACGTTGT", "PBM E-score": -0.0165}
{"sequence": "CGAAGACG", "PBM E-score": -0.159}
{"sequence": "CGATGTGA", "PBM E-score": -0.0315}
{"sequence": "ATACCTGG", "PBM E-score": -0.368}
{"sequence": "CCCAGAGA", "PBM E-score": -0.159}
{"sequence": "AATATACC", "PBM E-score": 0.111}
{"sequence": "ACCATACC", "PBM E-score": -0.227}
{"sequence": "CATGTGTC", "PBM E-score": -0.0104}
{"sequence": "ACGAGGAG", "PBM E-score": 0.0201}
{"sequence": "AAGTGGGC", "PBM E-score": -0.0164}
{"sequence": "AAAAGTTT", "PBM E-score": 0.144}
{"sequence": "CGACCTCA", "PBM E-score": 0.0422}
{"sequence": "CCCTACGA", "PBM E-score": -0.161}
{"sequence": "ATGAACCA", "PBM E-score": 0.147}
{"sequence": "ATCAGCAT", "PBM E-score": 0.211}
{"sequence": "CCGTGGAA", "PBM E-score": 0.0459}
{"sequence": "CCTGGCAG", "PBM E-score": -0.132}
{"sequence": "CCCTAACC", "PBM E-score": -0.235}
{"sequence": "TATGCTGA", "PBM E-score": 0.143}
{"sequence": "ACTGCAAA", "PBM E-score": 0.0571}
{"sequence": "TGCGAGAA", "PBM E-score": -0.0601}
{"sequence": "CCTACTAA", "PBM E-score": -0.136}
{"sequence": "ACTTATCG", "PBM E-score": -0.181}
